# Hit rate of the full screen: of about 2,000 compounds, about 110 (5.5%) showed an effect of 50% or more. The list shows a part of the results.
# Biological target: Genome polyprotein (dengue virus type 2) (UniProt P29990)
# [1] = Thailand/16681/1984, Concentration 25.0 uM, Number of replicates 1.0
compound,measurement,setting,value
O=Cc1ccc(N2CCC(C(=O)N3CCCN(CCCc4ccccc4)CC3)CC2)cc1,inhibition,[1],8.62%
CC(C)(C)OC(=O)N[C@H](C(=O)Nc1ccc(CN)cc1)c1ccc(OCc2ccccc2)cc1,inhibition,"Thailand/16681/1984, Concentration 49.5 uM, Number of replicates 2.0, Standard deviation 0.7638001086987946 %",-1.42%
same,inhibition,"Thailand/16681/1984, Concentration 99.01 uM, Number of replicates 2.0, Standard deviation 0.5692523211680847 %",0.423%
same,inhibition,"Thailand/16681/1984, Concentration 198.0 uM, Number of replicates 2.0, Standard deviation 0.3400589812244498 %",5.26%
Cc1cc(CO)c2cccc(NCc3ccc(C(N)=O)cc3)c2n1,inhibition,"Thailand/16681/1984, Concentration 49.95 uM, Number of replicates 2.0, Standard deviation 1.5291755401543807 %",1.6%
same,inhibition,"Thailand/16681/1984, Concentration 99.9 uM, Number of replicates 2.0, Standard deviation 0.4954793626184345 %",6.67%
Cc1cc(CO)c2cccc(Nc3ccc(C(=O)O)o3)c2n1,inhibition,"Thailand/16681/1984, Concentration 49.95 uM, Number of replicates 2.0, Standard deviation 2.0261345521834873 %",10.8%
same,inhibition,"Thailand/16681/1984, Concentration 99.9 uM, Number of replicates 2.0, Standard deviation 1.7612979174821286 %",14%
C[C@H](NC(=O)C1CCN(c2ccc(C=O)cc2)CC1)c1cccc(C(F)(F)F)c1,inhibition,[1],11%
CC(=O)N[C@@H](CCCCN)C(=O)Nc1cccc2cccnc12,inhibition,"Thailand/16681/1984, Concentration 99.9 uM, Number of replicates 2.0, Standard deviation 1.5851773643231095 %",-9.48%
O=Cc1ccc(N2CCC(C(=O)N[C@H](c3ccccc3)[C@@H](O)c3ccccc3)CC2)cc1,inhibition,[1],12%
Cc1cc(CO)c2cccc(Cc3ccccc3NC(=O)c3ccno3)c2n1,inhibition,"Thailand/16681/1984, Concentration 49.95 uM, Number of replicates 2.0, Standard deviation 3.752588616330447 %",3.29%
same,inhibition,"Thailand/16681/1984, Concentration 99.9 uM, Number of replicates 2.0, Standard deviation 1.45880155634974 %",6.29%
O=Cc1ccc(N2CCC(C(=O)Nc3ccc(Br)cc3O)CC2)cc1,inhibition,[1],31.4%
O=Cc1ccc(N2CCC(C(=O)NCc3nnc(-c4ccccc4)o3)CC2)cc1,inhibition,[1],14.1%
Cc1cc(CO)c2cccc(Cc3ccccc3NC(=O)[C@@H]3CCCC[C@H]3C(=O)O)c2n1,inhibition,"Thailand/16681/1984, Concentration 49.95 uM, Number of replicates 2.0, Standard deviation 1.6921268468808375 %",5.96%
same,inhibition,"Thailand/16681/1984, Concentration 99.9 uM, Number of replicates 2.0, Standard deviation 1.4248763778715632 %",17.6%
Cc1cc(CO)c2cccc(C[C@H](NC(=O)[C@@H]3C[C@@H](O)CN3)C(=O)O)c2n1,inhibition,"Thailand/16681/1984, Concentration 49.95 uM, Number of replicates 2.0, Standard deviation 1.1012335941421065 %",3.73%
same,inhibition,"Thailand/16681/1984, Concentration 99.9 uM, Number of replicates 2.0, Standard deviation 0.20808607176883367 %",10.4%
N#CC1(c2ccccc2)CCN(C(=O)C2CCN(c3ccc(C=O)cc3)CC2)CC1,inhibition,[1],11.5%
CCn1nnc(Cn2cc(C3CCNCC3)c(C)n2)n1,inhibition,"Thailand/16681/1984, Concentration 49.5 uM, Number of replicates 2.0, Standard deviation 0.5453516072891859 %",-0.358%
same,inhibition,"Thailand/16681/1984, Concentration 99.01 uM, Number of replicates 2.0, Standard deviation 0.32114141041718347 %",-0.944%
same,inhibition,"Thailand/16681/1984, Concentration 198.0 uM, Number of replicates 2.0, Standard deviation 0.8338806239972538 %",-0.003%
O=Cc1ccc(N2CCC(C(=O)NCCc3cccc(Br)c3)CC2)cc1,inhibition,[1],11.8%
O=C(N[C@H](C(=O)O)c1ccc(OCc2ccccc2)cc1)OCc1ccccc1,inhibition,"Thailand/16681/1984, Concentration 49.5 uM, Number of replicates 2.0, Standard deviation 1.5755205914644184 %",1.16%
same,inhibition,"Thailand/16681/1984, Concentration 99.01 uM, Number of replicates 2.0, Standard deviation 1.1157080020325059 %",3.53%
same,inhibition,"Thailand/16681/1984, Concentration 198.0 uM, Number of replicates 2.0, Standard deviation 0.14215963415330513 %",10.6%
N#Cc1cccc(-c2nc3c(C(=O)NCc4cccnc4)cc(Cl)cc3[nH]2)c1,inhibition,"Thailand/16681/1984, Concentration 99.5 uM, Number of replicates 2.0, Standard deviation 2.321247122631555 %",6.57%
same,inhibition,"Thailand/16681/1984, Concentration 295.6 uM, Number of replicates 2.0, Standard deviation 6.98688470817418 %",38.2%
COc1cc2c(cc1OC)C(=O)[C@@H](CC1CCN(C(=O)C3CCN(c4ccc(C=O)cc4)CC3)CC1)C2,inhibition,[1],13.2%
CC(C)(C)OC(=O)Cn1ccnc(N2CC[C@@H](CO)C2)c1=O,inhibition,"Thailand/16681/1984, Concentration 49.5 uM, Number of replicates 2.0, Standard deviation 1.925386388328258 %",8.46%
same,inhibition,"Thailand/16681/1984, Concentration 99.01 uM, Number of replicates 2.0, Standard deviation 1.9414052253354905 %",18.8%
same,inhibition,"Thailand/16681/1984, Concentration 198.0 uM, Number of replicates 2.0, Standard deviation 1.9983621392383246 %",33.8%
CC(=O)N[C@@H](Cc1ccc(CN)cc1)C(=O)Nc1cccc2c(CO)cc(C)nc12,inhibition,"Thailand/16681/1984, Concentration 49.95 uM, Number of replicates 2.0, Standard deviation 0.08390662036506401 %",24.9%
same,inhibition,"Thailand/16681/1984, Concentration 99.9 uM, Number of replicates 2.0, Standard deviation 0.3339864632910001 %",96.3%
Cn1cccc(C(=O)Nc2cc(Cl)cc(C(=O)NC(C)(C)CO)c2)c1=O,inhibition,"Thailand/16681/1984, Concentration 49.5 uM, Number of replicates 2.0, Standard deviation 1.3525953966857744 %",-1.24%
same,inhibition,"Thailand/16681/1984, Concentration 99.01 uM, Number of replicates 2.0, Standard deviation 1.139373794646161 %",-1.54%
same,inhibition,"Thailand/16681/1984, Concentration 198.0 uM, Number of replicates 2.0, Standard deviation 1.825064413405171 %",-3.63%
Cc1nc([C@H]2CC[C@H](NC(=O)c3ccc(O)c(NC(=O)c4ccncc4F)c3C)CC2)n[nH]1,inhibition,"Thailand/16681/1984, Concentration 49.5 uM, Number of replicates 2.0, Standard deviation 0.1289894183432269 %",-1.73%
same,inhibition,"Thailand/16681/1984, Concentration 99.01 uM, Number of replicates 2.0, Standard deviation 0.7020941721994499 %",-1.19%
same,inhibition,"Thailand/16681/1984, Concentration 198.0 uM, Number of replicates 2.0, Standard deviation 0.446292409899402 %",-0.612%
O=C(c1ccn([C@H]2CCCNC2)n1)N1CCC[C@H](c2ccccc2)C1,inhibition,"Thailand/16681/1984, Concentration 49.5 uM, Number of replicates 2.0, Standard deviation 9.16460427853716 %",2.31%
same,inhibition,"Thailand/16681/1984, Concentration 99.01 uM, Number of replicates 2.0, Standard deviation 15.15135118363098 %",7.34%
same,inhibition,"Thailand/16681/1984, Concentration 198.0 uM, Number of replicates 2.0, Standard deviation 8.96789300897869 %",7.08%
O=Cc1ccc(N2CCC(C(=O)Nc3cc(Br)cc(C(F)(F)F)c3)CC2)cc1,inhibition,[1],12.4%
Cc1cc(CO)c2cccc(CC(=O)N[C@@H](CCC(N)=O)C(=O)O)c2n1,inhibition,"Thailand/16681/1984, Concentration 49.95 uM, Number of replicates 2.0, Standard deviation 0.1031646955614498 %",95.6%
same,inhibition,"Thailand/16681/1984, Concentration 99.9 uM, Number of replicates 2.0, Standard deviation 0.012461980167701147 %",98.7%
Cc1cc(CO)c2cccc(Cc3ccccc3NC(=O)CN3CCOCC3)c2n1,inhibition,"Thailand/16681/1984, Concentration 49.95 uM, Number of replicates 2.0, Standard deviation 1.5612707024702146 %",-2%
same,inhibition,"Thailand/16681/1984, Concentration 99.9 uM, Number of replicates 2.0, Standard deviation 0.4618038620708361 %",3.39%
CC(=O)N[C@@H](CCCN)C(=O)Nc1ccccc1Cc1cccc2c(CO)cc(C)nc12,inhibition,"Thailand/16681/1984, Concentration 49.95 uM, Number of replicates 2.0, Standard deviation 1.2344771467866291 %",-4.07%
same,inhibition,"Thailand/16681/1984, Concentration 99.9 uM, Number of replicates 2.0, Standard deviation 0.6037374205287288 %",4.36%
c1cnc(N2CCOCC2)c(CN2CC[C@H](c3c[nH]c4ccccc34)C2)c1,inhibition,"Thailand/16681/1984, Concentration 49.5 uM, Number of replicates 2.0, Standard deviation 0.5553889740924645 %",0.48%
same,inhibition,"Thailand/16681/1984, Concentration 99.01 uM, Number of replicates 2.0, Standard deviation 1.234197713181002 %",2.1%
same,inhibition,"Thailand/16681/1984, Concentration 198.0 uM, Number of replicates 2.0, Standard deviation 1.4786453041530332 %",4.2%
c1cncc(C2CCN(Cc3c[nH]c4ccccc34)CC2)c1,inhibition,"Thailand/16681/1984, Concentration 49.5 uM, Number of replicates 2.0, Standard deviation 0.9186485573584864 %",-4.68%
same,inhibition,"Thailand/16681/1984, Concentration 99.01 uM, Number of replicates 2.0, Standard deviation 0.34840877767663997 %",-2.48%
same,inhibition,"Thailand/16681/1984, Concentration 198.0 uM, Number of replicates 2.0, Standard deviation 1.0669618842754731 %",2.52%
C[C@@H](c1ccccc1)N(C(=O)C1CCN(c2ccc(C=O)cc2)CC1)[C@@H](C)c1ccccc1,inhibition,[1],15.2%
c1cnc(C2CCN(Cc3c[nH]c4ccccc34)CC2)nc1,inhibition,"Thailand/16681/1984, Concentration 49.5 uM, Number of replicates 2.0, Standard deviation 0.0814293971969877 %",-4.94%
same,inhibition,"Thailand/16681/1984, Concentration 99.01 uM, Number of replicates 2.0, Standard deviation 1.1974150626674833 %",-3.24%
same,inhibition,"Thailand/16681/1984, Concentration 198.0 uM, Number of replicates 2.0, Standard deviation 1.6263665310687148 %",-1.42%
O=C(NCCc1c[nH]c2cccnc12)[C@@]1(c2ccc(F)cc2)CCCNC1,inhibition,"Thailand/16681/1984, Concentration 49.5 uM, Number of replicates 2.0, Standard deviation 1.1136820873182842 %",1.59%
same,inhibition,"Thailand/16681/1984, Concentration 99.01 uM, Number of replicates 2.0, Standard deviation 0.49533104785852466 %",0.827%
same,inhibition,"Thailand/16681/1984, Concentration 198.0 uM, Number of replicates 2.0, Standard deviation 0.202684658104223 %",1.03%
O=Cc1ccc(N2CCC(C(=O)NCc3ccc(Br)cc3F)CC2)cc1,inhibition,[1],13.2%
CC(C)Sc1ccccc1NC(=O)C1CCN(c2ccc(C=O)cc2)CC1,inhibition,[1],12.6%
O=Cc1ccc(N2CCC(C(=O)NCc3ccc(-c4ccccc4)cc3)CC2)cc1,inhibition,[1],1.38%
O=Cc1ccc(N2CCC(C(=O)N3CCC(Oc4ncccn4)CC3)CC2)cc1,inhibition,[1],13.4%
c1ccc2c(CN3CCC(c4c[nH]c5ncccc45)CC3)c[nH]c2c1,inhibition,"Thailand/16681/1984, Concentration 49.5 uM, Number of replicates 2.0, Standard deviation 0.3722732505341754 %",1.81%
same,inhibition,"Thailand/16681/1984, Concentration 99.01 uM, Number of replicates 2.0, Standard deviation 0.4261548774885636 %",5.47%
same,inhibition,"Thailand/16681/1984, Concentration 198.0 uM, Number of replicates 2.0, Standard deviation 0.5067055971877963 %",12%

# Source: ChEMBL document CHEMBL5606460, “ASAP - DENV-2 NS2B-NS3 protease fluorescence single point” (2024)
